Measurements as given in PubChem BioAssay AID1458 (National Center for Advancing Translational Sciences (NCATS), 2008).
“And” between values parts separate entries of the source, which are not always exact repeats. Equal entries are not always repeated. About 5,900 (2.8%) of roughly 210,000 compounds were called active. The shares of active, inactive and inconclusive entries below differ from those in the screen. Calls follow the shape of the dose curve; as a rule, active = well fitted activation curve with a large enough effect; inconclusive = small, poorly fitted or top-dose-only effect; inactive = no such curve, though single readings can be large or run the other way. Potencies of inconclusive entries are doubtful fits and often do not repeat.

Assay: qHTS Assay for Enhancers of SMN2 Splice Variant Expression; also: nearly all actives have a fitted effect of over 55% in size; as to activity change, positive = activation: % of control where 0% means no effect
Conditions: HEK293 SMN2-luciferase splicing reporter, luminescence, 30-36 h; activity change, positive = activation: at 46.1 µM (top of the series)
Method in brief: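 qHTS luciferase splicing reporter: luminescence rises when SMN2 exon 7 is included in transfected HEK293 cells. Compound exposure lasted 30-36 h at 37C, with 4.5 mM final sodium butyrate as control, followed by a ONE-Glo read.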
Potency is read from the fitted curve at half-maximal effect; tags tell the direction and shape of the fitted curve.

Row | SMILES | Potency | activity change, positive = activation
1 | CCOc1ccccc1CNC(=O)c1oc2ccc3c(c2c1C)C(=O)CC(C)(C)O3 | inconclusive: 22.4 µM [activator, single point] | –
2 | Cn1c(Cl)nc2ccccc21 | inconclusive: 10 µM [activator, single point] | –
3 | CCc1ccc2c(c1)/C(=N/OC)C(=O)N2 | inconclusive: 35.5 µM [activator, single point] | –
4 | CC(CNC(=O)C1CCN(C(=O)c2cc3sccc3n2C)CC1)c1ccccc1 (stereo unspecified) | inconclusive: 3.98 µM [activator, partial curve, poor fit] | –
5 | Cc1cccc(CSc2ccc(-c3cccs3)nn2)c1 | active: 20 µM | –
6 | CCc1ccc(N(CC)C(=O)Cn2cnc3sc(C)c(S(=O)(=O)N4CCN(c5ncccn5)CC4)c3c2=O)cc1 | – | inactive: 5.53%
7 | CC1CNCCN1S(=O)(=O)c1cccc2cnccc12 (stereo unspecified) | inconclusive: 35.5 µM [activator, single point] and inconclusive: 11.2 µM [activator, partial curve, poor fit] | –
8 | Clc1ccccc1Cn1nnc(-c2ccccc2)n1 | inconclusive: 31.6 µM [activator, single point] | –
9 | Cc1ccc(Nc2nc3ccccc3o2)cc1F | inconclusive: 25.1 µM [activator, single point] | –
10 | CCCCn1nc(C(=O)Oc2ccc3c(C)cc(=O)oc3c2)c2ccccc2c1=O | inconclusive: 3.16 µM [activator, single point] | –
11 | O=C1CSC(=S)N1/N=C/C=C/c1ccccc1 | – | inactive: 1.01%
12 | Clc1ccccc1C(Nc1cnccn1)Nc1cnccn1 | – | inactive: -7.02% [at 9.22 µM]
13 | Cc1ccc(N2C(=O)c3ccccc3C2O)nc1 (stereo unspecified) | active: 0.562 µM | –
14 | CN1C(=O)C(O)(C2COC(C)(C)CC2=O)c2cc(Br)ccc21 (stereo unspecified) | inconclusive: 0.0251 µM [activator, full curve, poor fit] | –
15 | O=C(Nc1cc2ccccc2oc1=O)C1CCCCC1 | active: 4.47 µM | –
16 | CSc1nc2sc(-c3ccccc3)cc2c(=O)n1N | active: 2.82 µM | –
17 | CCOc1ccc(Nc2oc(Cc3ccccc3)nc2C#N)cc1 | inconclusive: 12.6 µM [activator, single point] | –
18 | N#Cc1cc2cc3c(cc2nc1N1CCCCC1)OCCO3 | active: 12.6 µM | –
19 | Cc1nn(Cc2ccc(Cl)cc2Cl)c(C)c1NC(=O)Cn1nc([N+](=O)[O-])c(Cl)c1C | – | inactive: 0.986%
20 | CCCN1CCC(NC(=O)Nc2ccc(OC)c(OC)c2)CC1 | inconclusive: 5.01 µM [activator, full curve] | –
21 | O=C(CNc1ccccc1)N/N=C/c1ccc2c(c1)OCO2 | – | inactive: 6.83%
